{
  "source": "PubChem BioAssay AID1347120",
  "about": "(National Center for Advancing Translational Sciences (NCATS), 2019)",
  "note": "Among all 390,000 compounds or so, about 930 (0.24%) were called active. The shares of active, inactive and inconclusive entries below differ from those in the screen. Calls follow the shape of the dose curve; as a rule, active = well fitted activation curve with a large enough effect; inconclusive = small, poorly fitted or top-dose-only effect; inactive = no such curve, though single readings can be large or run the other way. A potency beside an inconclusive call is a rough fit, not a confirmed value. Potency is read from the fitted curve at half-maximal effect; tags tell the direction and shape of the fitted curve.",
  "data": [
    {"test": "qHTS for Suppressors of FUS Proteinopathy: Primary screen using FUS-linked yeast assay; also: nearly all actives have a fitted effect of over 55% in size;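 as to growth rescue (activation): plate controls were DMSO vehicle for no effect and reference control for full effect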", "details": "S. cerevisiae FUS-expressing, OD600, 24 h; Potency: growth rescue; growth rescue (activation): at 76.6 µM (top of the series)", "source_text": "Several widespread neurodegenerative diseases, including Alzheimer disease, Huntington disease, Frontotemporal Lobar Degeneration (FTLD) and Amyotrophic Lateral Sclerosis (ALS), share a common pathological feature, namely accumulation of specific protein aggregates in diseased tissue. These diseases which is associated with protein misfolding (proteinopathies) have become increasingly problematic as the population ages and life expectancies are extended. Most proteinopathies are currently incurable, a situation confounded by the fact that the basis of neurodegeneration is generally poorly understood. There exists urgent and significant need to find therapeutics that can inhibit the toxicity associated with protein aggregation. A novel approach to understand the underlying mechanisms of neurodegenerative diseases has recently emerged in which the disease conditions are modeled in the yeast (Saccharomyces cerevisiae), a tractable eukaryotic organism with conserved protein quality control mechanisms. Yeast offers quick and reliable genetic manipulations and can be easily tailored to high-throughput screening (HTS).\nFor this project, a yeast model of the FUS proteinopathies (a spectrum of neurodegenerative diseases that include ALS and a subtype of FTLD) was generated and employed. The cytoplasmic accumulation of the DNA/RNA-binding protein FUS (also known as TLS) is causative to both familial and sporadic forms of ALS and FTLD. This yeast model recapitulates neuronal pathology by showing severe cytotoxicity associated with cytoplasmic accumulation of FUS aggregates and a specific interaction between FUS and TDP-43, another ALS-associated protein. […] Specifically, the cellular accumulation of misfolded FUS that disrupts RNA homeostasis in both yeast and higher eukaryotes. This model was validated to be suitable for quantitative HTS (qHTS) use for finding genetic or chemical factors that restore growth. […] Identified compounds that inhibits FUS-yeast toxicity is flagged, re-acquired, and validated for further investigation and optimization.\nNIH Chemical Genomics Center [NCGC]\nNIH Molecular Libraries Probe Production Centers Network [MLPCN]\nAssay Submitter (PI): Frank Shewmaker PhD, Uniformed Services University of the Health Sciences\nCompound CP55940 was used as the positive control. Column 1 was treated with CP55940 titration from 92uM (final concentration, 1:2 dilution), while Column 2 was treated with top dose 92uM. Columns 3 and 4 were treated with DMSO only as negative control to assess background and noise signal.\nFour hundred fifty microliter of cultured yeast (in 20mL rich medium) provided by Dr. Shewmaker lab was incubated at 30C at 99% humidity for 3hr. The culture was then spun down at 4000rpm for 5min and the cell pellet was resuspended in 2mL of Sdmin Media + ALU(330) + 2.5% Raffinose. One hundred microliter of the suspension was added to 900uL of water and OD of the solution was obtained. Twenty mL of responding medium (provided by Shewmaker lab) + 2.5% raffinose was added to ensure cell density of 0.1; the solution was incubated overnight. Working cell solution (FUS-yeast in Sdmi + Sdmi + 1X ALU + 2% galactose media) was prepared (final OD at 0.005) and 3uL was dispensed in a 1536-well Aurora high based clear bottom assay plates. Controls and library compounds (at various final concentrations from 40uM to 0.32uM) were added using a 1536-well pin array using the Kalypsys pin-tool. The plates were then incubated for 24hrs in a cell-culture incubator (30C; 99% humidity). Absorbance at 600nm was then read using the PerkinElmer ViewLux plate reader.", "values": [
      {"smiles": "CC(C)N(C(=O)[C@H]1C[C@H](CC(=O)NC(C)(C)C)C(=O)N2CCc3c([nH]c4ccc(Cl)cc34)[C@]12C)C(C)C", "Potency": "inconclusive: 15.8 µM [activator, single point]"},
      {"smiles": "CC12CCC(C(=O)N(CC(O)CN3CCN(Cc4ccccc4)CC3)C1=O)C2(C)C", "note": "(stereo not given)", "growth rescue (activation)": "inactive: 12.9%"},
      {"smiles": "CCOC(=O)C1=C(CSc2nc(CC)c(C)cc2C#N)OC(N)=C(C#N)C1c1ccc(OC)cc1", "note": "(stereo not given)", "Potency": "inconclusive: 31.6 µM [activator, single point]"},
      {"smiles": "COC(=O)[C@]12C[C@H](CC(=O)NCc3cccc(C(F)(F)F)c3)C(=O)N(CCc3ccc(OC)c(OC)c3)C1=C[C@H](COCc1ccccc1)O[C@@H]2C", "Potency": "inconclusive: 17.8 µM [activator, partial curve, poor fit]"},
      {"smiles": "CCOc1ccc(-c2nnn(CC(=O)NCc3ccc4c(c3)OCO4)n2)cc1", "Potency": "inconclusive: 14.1 µM [activator, partial curve, poor fit]"},
      {"smiles": "Cc1ccc2c(c1)N(CCCC(=O)N(C)Cc1ccc(F)cc1)C(=O)CO2", "growth rescue (activation)": "inactive: 21.2%"},
      {"smiles": "N#CCCN(Cc1ccccc1)C(C(=O)NC1CCCCC1)c1cc2ccccc2o1", "note": "(stereo not given)", "Potency": "inconclusive: 11.2 µM [activator, partial curve, poor fit]"},
      {"smiles": "Cn1cnc([N+](=O)[O-])c1S(=O)(=O)Nc1ccccc1", "Potency": "inconclusive: 20 µM [activator, partial curve, poor fit]"},
      {"smiles": "c1ccc(CCn2nnnc2CN2CCCc3ccccc32)cc1", "Potency": "inconclusive: 35.5 µM [activator, partial curve, poor fit]"},
      {"smiles": "CC(C)C1C(=O)N(Cc2cn(CCC3OCCO3)nn2)CCS(=O)(=O)N1Cc1ccc(-c2ccc(Cl)cc2)cc1", "note": "(stereo not given)", "Potency": "inconclusive: 25.1 µM [activator, single point]"},
      {"smiles": "COc1ccc(NC(=O)c2ccc(Cn3cc(Cl)cn3)cc2)cc1", "growth rescue (activation)": "inactive: 18.2%"},
      {"smiles": "Cc1ccc(C2(C)NC(=O)N(CC(=O)Nc3ccc(Cl)c(S(=O)(=O)N4CCCCC4)c3)C2=O)cc1", "note": "(stereo not given)", "Potency": "inconclusive: 22.4 µM [activator, partial curve, poor fit]"},
      {"smiles": "COc1ccc2c(COC(=O)[C@@H]3CCCN3S(=O)(=O)c3ccc(Cl)cc3)cc(=O)oc2c1", "Potency": "inconclusive: 14.1 µM [activator, partial curve]"},
      {"smiles": "C=CCC[C@@H](Cc1ccc(F)cc1)C(=O)OC[C@H](C)NC(=O)[C@H](CC=C)CC(=O)N(CCO)Cc1ccccc1", "Potency": "inconclusive: 25.1 µM [activator, single point]"},
      {"smiles": "CC(C)c1ccc(NC(=O)N2CCCC2C(=O)Nc2ccc(-n3cnnn3)cc2)cc1", "note": "(stereo not given)", "Potency": "inconclusive: 39.8 µM [activator, single point]"}
    ]}
  ]
}
